In publication PMC11995724, “Antibiotic target discovery by integrated phenotypic and activity-based profiling of electrophilic fragments” (Cell chemical biology, 2025):
Out of some 3,200 compounds screened, about 110 (3.4%) showed an effect of 50% or more. This is one part of the list.

Tested on: T1, V. cholerae SAD30
T1 construct: SAD30
Parameters: species or system S. aureus MSSA476 (TSB) or V. cholerae SAD30 (LB); 384-well bacterial growth screen at 25 uM, OD600 relative to DMSO control
Details: relative growth, OD600, LB; 25 µM; inhibitor

Compound | % of control remaining [%]
C=CC(=O)NCC(CC)n1nc(C)cc1C (stereo not drawn) [1-K21, N-[2-(3,5-dimethyl-1H-pyrazol-1-yl)butyl]prop-2-enamide] | 94.6188
Cc1nn(C)c(C)c1C=C(C#N)C(=O)Nc1ccccc1F [9-I07, 2-cyano-N-(2-fluorophenyl)-3-(1,3,5-trimethyl-1H-pyrazol-4-yl)prop-2-enamide] | 88.3073
Cc1cc2ncn(CC(NC(=O)C(C)Cl)C3CC3)c2cc1C (stereo not drawn) [7-J17, 2-chloro-N-[1-cyclopropyl-2-(5,6-dimethyl-1H-1,3-benzodiazol-1-yl)ethyl]propanamide] | 56.1705
O=C(CCl)N(Cc1cnn(-c2ccccc2)c1)C1CC1 [6-L09, 2-chloro-N-cyclopropyl-N-[(1-phenyl-1H-pyrazol-4-yl)methyl]acetamide] | 91.0039
Cc1ccc(NC(=O)CN2CCN(C(=O)CCl)CC2)cc1.Cl [4-D16, 2-[4-(2-chloroacetyl)piperazin-1-yl]-N-(4-methylphenyl)acetamide hydrochloride] | 86.2627
CC(C)c1ccc(Cn2[nH]ccc2=NC(=O)CCl)cc1 [5-P12, 2-chloro-N-(2-{[4-(propan-2-yl)phenyl]methyl}-2,3-dihydro-1H-pyrazol-3-ylidene)acetamide] | 102.385
C=CC(=O)NCc1ccc(C(=O)N2CCCCC(SC)C2)cc1 (stereo not drawn) [2-B20, N-({4-[3-(methylsulfanyl)azepane-1-carbonyl]phenyl}methyl)prop-2-enamide] | 94.519
CC(Cl)C(=O)NC1c2cc(F)ccc2CC1C (stereo not drawn) [7-E16, 2-chloro-N-(6-fluoro-2-methyl-2,3-dihydro-1H-inden-1-yl)propanamide] | 70.8409
CC(Cl)C(=O)NCCc1nc(C2CCCCC2)cs1 (stereo not drawn) [7-F09, 2-chloro-N-[2-(4-cyclohexyl-1,3-thiazol-2-yl)ethyl]propanamide] | 68.7263
Cc1ccc(C(=O)C(C)Cl)cc1C (stereo not drawn) [10-B20, 2-chloro-1-(3,4-dimethylphenyl)propan-1-one] | 99.2792
O=C(CCl)N(Cc1nc(C2CCCCCC2)no1)C1CC1 [7-B16, 2-chloro-N-[(3-cycloheptyl-1,2,4-oxadiazol-5-yl)methyl]-N-cyclopropylacetamide] | 80.2247
COCC(C)n1c(C)cc(C=C(C#N)C(=O)NS(C)(=O)=O)c1C (stereo not drawn) [8-B04, 2-cyano-N-methanesulfonyl-3-[1-(1-methoxypropan-2-yl)-2,5-dimethyl-1H-pyrrol-3-yl]prop-2-enamide] | 81.6451
C=CC(=O)N(C)CCCn1c(=O)c(C)nc2ccccc21 [1-I08, N-methyl-N-[3-(3-methyl-2-oxo-1,2-dihydroquinoxalin-1-yl)propyl]prop-2-enamide] | 88.1913
CC(Cl)C(=O)N1CCn2cccc2C1c1ccccc1 (stereo not drawn) [7-E11, 2-chloro-1-{1-phenyl-1H,2H,3H,4H-pyrrolo[1,2-a]pyrazin-2-yl}propan-1-one] | 77.8457
CN(C)c1ccc(C=C(C#N)C(=O)Nc2ccc3c(c2)OCCO3)cc1 [9-B21, 2-cyano-N-(2,3-dihydro-1,4-benzodioxin-6-yl)-3-[4-(dimethylamino)phenyl]prop-2-enamide] | 90.7546
O=C(CCl)NCCc1nc2ccccc2s1 [6-K20, N-[2-(1,3-benzothiazol-2-yl)ethyl]-2-chloroacetamide] | 97.3742
O=C(CCl)N1CCCCC1Cn1ccnn1 (stereo not drawn) [5-E08, 2-chloro-1-{2-[(1H-1,2,3-triazol-1-yl)methyl]piperidin-1-yl}ethan-1-one] | 98.5184
C=CC(=O)NCc1cn2c(n1)CCCC2 [3-L20, N-({5H,6H,7H,8H-imidazo[1,2-a]pyridin-2-yl}methyl)prop-2-enamide] | 95.9713
CC(Cl)C(=O)N1CCC(n2c(=O)[nH]c3ccccc32)CC1 (stereo not drawn) [6-N05, 1-[1-(2-chloropropanoyl)piperidin-4-yl]-2,3-dihydro-1H-1,3-benzodiazol-2-one] | 91.7623
CCOc1ccc(C=C(C#N)C(=O)Nc2nccs2)cc1 [9-C06, 2-cyano-3-(4-ethoxyphenyl)-N-(1,3-thiazol-2-yl)prop-2-enamide] | 88.0354
Cc1cc(C(=O)CCl)c(C)n1-c1ccon1 [10-F06, 2-chloro-1-[2,5-dimethyl-1-(1,2-oxazol-3-yl)-1H-pyrrol-3-yl]ethan-1-one] | 37.8726
COc1ccccc1N(CC(F)(F)F)C(=O)CCl [4-C18, 2-chloro-N-(2-methoxyphenyl)-N-(2,2,2-trifluoroethyl)acetamide] | 96.0966
C=CC(=O)N[C@@H](CN(C)C)c1ccccc1 [2-M19, N-[(1R)-2-(dimethylamino)-1-phenylethyl]prop-2-enamide] | 89.5783

Compound | % of control remaining [%]
O=C(CCl)NCC(F)(F)c1cccnc1 [6-C21, 2-chloro-N-[2,2-difluoro-2-(pyridin-3-yl)ethyl]acetamide] | 97.8292
C=CC(=O)NCc1nnc2ccccn12 [1-H19, N-({[1,2,4]triazolo[4,3-a]pyridin-3-yl}methyl)prop-2-enamide] | 85.6502
CC(C)NC(=O)C(C#N)=Cc1cccc(O)c1 [8-A22, 2-cyano-3-(3-hydroxyphenyl)-N-(propan-2-yl)prop-2-enamide] | 101.768
N#CC(=Cc1ccc(O)c(O)c1)C(=O)Nc1ccccc1F [8-B05, 2-cyano-3-(3,4-dihydroxyphenyl)-N-(2-fluorophenyl)prop-2-enamide] | 69.1366
N#CC(=Cc1ccc(-c2ccccc2F)o1)C(=O)NCc1ccccc1 [9-H10, N-benzyl-2-cyano-3-[5-(2-fluorophenyl)furan-2-yl]prop-2-enamide] | 89.123
O=C(CCl)c1c(-c2ccccc2)[nH]c2ccccc12 [10-E05, 2-chloro-1-(2-phenyl-1H-indol-3-yl)ethan-1-one] | 90.863
COc1cc(CC2CN(C(=O)C(C)Cl)C2)cc(OC)c1 (stereo not drawn) [7-H07, 2-chloro-1-{3-[(3,5-dimethoxyphenyl)methyl]azetidin-1-yl}propan-1-one] | 77.1849
C=CC(=O)NCc1noc2c1CC(C)(C)CC2 [2-L07, N-[(5,5-dimethyl-4,5,6,7-tetrahydro-1,2-benzoxazol-3-yl)methyl]prop-2-enamide] | 86.9536
O=C(CCl)N1CCCC1c1nc(Cc2ccc(F)cc2)no1 (stereo not drawn) [5-M10, 2-chloro-1-(2-{3-[(4-fluorophenyl)methyl]-1,2,4-oxadiazol-5-yl}pyrrolidin-1-yl)ethan-1-one] | 94.6517
Cc1ccc(CNC(=O)C(C)Cl)cc1 (stereo not drawn) [5-O03, 2-chloro-N-[(4-methylphenyl)methyl]propanamide] | 109.11
O=C(CCl)c1c[nH]c(C(=O)N2CCCC2)c1 [10-A16, 2-chloro-1-[5-(pyrrolidine-1-carbonyl)-1H-pyrrol-3-yl]ethan-1-one] | 108.475
C=CC(=O)NCC1CCCC(C2CC2)O1 (stereo not drawn) [1-M17, N-[(6-cyclopropyloxan-2-yl)methyl]prop-2-enamide] | 85.0523
Cc1cc(C(=O)CCl)c(C)n1-c1cccc([N+](=O)[O-])c1 [10-B16, 2-chloro-1-[2,5-dimethyl-1-(3-nitrophenyl)-1H-pyrrol-3-yl]ethan-1-one] | 67.329
CN(CC(=O)NCc1ccco1)C(=O)CCl [4-A18, 2-chloro-N-({[(furan-2-yl)methyl]carbamoyl}methyl)-N-methylacetamide] | 107.828
C=CC(=O)N1CCn2cccc2C12COC2 [1-K09, 1-{3',4'-dihydro-2'H-spiro[oxetane-3,1'-pyrrolo[1,2-a]pyrazin]-2'-yl}prop-2-en-1-one] | 88.9387
CC(Cl)C(=O)NCc1ncn(Cc2cccc(F)c2)n1 (stereo not drawn) [7-K03, 2-chloro-N-({1-[(3-fluorophenyl)methyl]-1H-1,2,4-triazol-3-yl}methyl)propanamide] | 90.5336
CC(CC#N)Sc1ccccc1NC(=O)CCl (stereo not drawn) [5-F14, 2-chloro-N-{2-[(1-cyanopropan-2-yl)sulfanyl]phenyl}acetamide] | 94.6517
CN(CCC1CCCCC1)C(=O)CCl [5-A06, 2-chloro-N-(2-cyclohexylethyl)-N-methylacetamide] | 99.8634
COc1ccc(CN2CCN(C(=O)CCl)CC2)cc1F.Cl [4-P18, 2-chloro-1-{4-[(3-fluoro-4-methoxyphenyl)methyl]piperazin-1-yl}ethan-1-one hydrochloride] | 110.934
CCCCNC(=O)C(C#N)=Cc1cc(C)ccc1C [9-C11, N-butyl-2-cyano-3-(2,5-dimethylphenyl)prop-2-enamide] | 79.0619
C=CC(=O)NCC(C)(C)C1CCCCC1 [1-E21, N-(2-cyclohexyl-2-methylpropyl)prop-2-enamide] | 79.6712
C=CC(=O)N1CCC(C(=O)Nc2ccn(CC(=O)N(C)C)n2)CC1 [2-H12, N-{1-[(dimethylcarbamoyl)methyl]-1H-pyrazol-3-yl}-1-(prop-2-enoyl)piperidine-4-carboxamide] | 94.8278
